For 22 molecules, binding signal results are on record in publication PMC12136788.

Sequences and labels used below:
T1: UNK ZnF1-3 (human, UniProt Q9C0B0 31-174)
T1 sequence: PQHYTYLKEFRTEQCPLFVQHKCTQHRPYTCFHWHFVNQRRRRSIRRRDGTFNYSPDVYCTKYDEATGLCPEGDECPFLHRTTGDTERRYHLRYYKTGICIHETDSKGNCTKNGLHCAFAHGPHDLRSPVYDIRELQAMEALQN

B1: chr9:98468509:98468510:+_ENSMUSG00000032458_ENSMUST00000035033|mus_hu|FALSE|FALSE (ssRNA)
RNA: GGGAGUUCUACAGUCCGACGAUCAAUGUCUUCACCAGUGUCUGUGUUUCAUGAUUCCAAACACACACACUGCCAUUGUAAAGACUUGCCAACAUCCAUGGCUCUGUAGGAUGCAGAUCCACACUCUUAACUCGAUCAGAUCUACAACAGAGGAUUGAGCAUCA
B2: chr12:57883053:57883054:+_ENSG00000166986_ENST00000262027|hu_mus|FALSE|FALSE (ssRNA)
RNA: GGGAGUUCUACAGUCCGACGAUCGGUGAGAUCAUCUUGUUCCCAGCCACAUAACAGAAAAAAAUAUCGGCAGAUUGCACUAGCAGAGAAGAGGUAGUUGCCACUAUCCAGCUGCAAGACAGGGACCUUAGGCCGGGUAAGGAACAACAGAGGAUUGAGCAUCA
B3: chr2:104499440:104499441:+_ENSMUSG00000027176_ENSMUST00000028599|mus_mus|FALSE|FALSE (ssRNA)
RNA: GGGAGUUCUACAGUCCGACGAUCUUCUCCAGACUUCUCAGGAGGAAGGCUUCCAGACGUUAGAACUCUUUCAAACAAAACUCGAGUAUUAUUGUCCUCAUUGAGGUGAGAGAGAUAGUCAAUAUAAGCCAAAACAUAUUCUGGCAACAGAGGAUUGAGCAUCA
B4: chr8:13020401:13020402:+_ENSMUSG00000031442_ENSMUST00000123811|mus_mus|FALSE|FALSE (ssRNA)
RNA: GGGAGUUCUACAGUCCGACGAUCCCAGUAAUGGCUUUGCAAGCCAUAGGGCAGGGGAGGAGGGUGUUUUUCCUGGACAUACAGUGGUGAACGAGCCUCGGUGGCCUCCCAUGGCAGCAGGGUGAGGAGACAGGGAGGGACCGUCAACAGAGGAUUGAGCAUCA
B5: chr17:5391764:5391765:+_ENSG00000167842_ENST00000381165|hu_hu|motif|central (ssRNA)
RNA: GGGAGUUCUACAGUCCGACGAUCUGAGCUUCAAUGACCUAUAGCUCCACCUUUUAGCCACCUGGCUCUUGAUAUUUGUAACGGCUCUUCCAAACUGCUUCUACUUUUUGACUACUGCCUCCUACACAAUUCUUCCAAUUCUUACAACAGAGGAUUGAGCAUCA
B6: chr7:141441981:141441982:+_ENSG00000106028_ENST00000265304|hu_mus|hu_hu_hu_mus_False|48_48 (ssRNA)
RNA: GGGAGUUCUACAGUCCGACGAUCCUCAUGUCUUACAAACUGACGAAAUACCUGUAACACAGGUCUUCGAAACAUGGCUUCUGUUUUCUUUUCUUACUAAUCUUUAGGCUUUUCCUAAAGGAAAGAAAGAAAAGAGAAAAAUGACAACAGAGGAUUGAGCAUCA
B7: chrX:71549762:71549763:+_ENSMUSG00000019087_ENSMUST00000019231|mus_mus|mus_mus_mus_hu_False|28_68 (ssRNA)
RNA: GGGAGUUCUACAGUCCGACGAUCAAACCCGUGUACUUCUUAUUGUUAGCACAACAUCACCAGAAAAAAAACAUAACAGCCAAGCAGGACAGACAGUUAAGUAGUACUUCCACACCUCCAAACUCAGGGAGCCCUAUAACCUUACAACAGAGGAUUGAGCAUCA
B8: 96352238_96353342_2103_CDS_ENSG00000119969_ENST00000348459|human|control|control (ssRNA)
RNA: GGGAGUUCUACAGUCCGACGAUCUGCUGCAGUCAGAUUAAUGCCCAGGCCACCAGCUCGUGUACUCACUAAGAAGAUAAACACCUCUGGAUCCGUGUUGAAGCUGUGCAUGUUUUUUUCUCUCUCUGAGUAAGACAUGGACCCCAACAGAGGAUUGAGCAUCA
B9: chr17:7478442:7478443:+_ENSG00000161960_ENST00000293831|hu_mus|FALSE|FALSE (ssRNA)
RNA: GGGAGUUCUACAGUCCGACGAUCUGAUAUGGCAAAUGUAGCUGUUUUCCCAGUCCCAGACUGGGCUUGAGCAAUCACAUCAUAACCCUUGAUACAAGGAAGAAUAGCUCGCUGCUGGAUGGCAGAGGGCUUCUCAAAACCAUACAACAGAGGAUUGAGCAUCA
B10: chr7:30890253:30890254:+_ENSMUSG00000049421_ENSMUST00000108200|mus_hu|FALSE|FALSE (ssRNA)
RNA: GGGAGUUCUACAGUCCGACGAUCUUCCUUCUGGCUAAAAGCUUUUCCACACUCACUACAUUUAAAGGGCUUCUUUCCAGUAUGGAUGUUCUGAUGUUUAAUGAGGUAUUGCUUCUGGCUGAAGGCUCUUCCACACUGAUUACACAACAGAGGAUUGAGCAUCA
B11: chr1:129365822:129365823:+_ENSMUSG00000036155_ENSMUST00000038361|mus_hu|FALSE|FALSE (ssRNA)
RNA: GGGAGUUCUACAGUCCGACGAUCAUUUAAAAUUGCUUUCACUGCAUCCUCUACUUCCUCCUGAUUGUUGAGGUCAACAGUCCACACAUGUGGCCGCCCGAUGAAAACUUCAGCGUAAGGAUGCUGGGAUGUCAGCUCUCUCAGCAACAGAGGAUUGAGCAUCA
B12: chr14:57575763:57575764:+_ENSMUSG00000021945_ENSMUST00000022511|mus_mus|FALSE|FALSE (ssRNA)
RNA: GGGAGUUCUACAGUCCGACGAUCCACUGUUUUCAGGCCAAAAUACUUAGUGUUAAAGUAGAAUAGGGUAUUCAAAAGUGCUACUGGAGAGUGGGAUCCUAGUUGUUUUAUCCUCCAGAGAUAGUCUUCUUCAACUCGAGAGAACAACAGAGGAUUGAGCAUCA
B13: chrX:69798090:69798091:-_ENSMUSG00000031343_ENSMUST00000055966|mus_mus|mus_mus_mus_hu_False|48_108 (ssRNA)
RNA: GGGAGUUCUACAGUCCGACGAUCAAGUCCCCAGGUUCUUGUCGUCUUGAUUCCCCUUGACCAGUGGUUCCAGGGAGAAUAUUAAUCAGGAGAAGAAUCCCAAGGCUGGUCAUGUAACAGUGACUUGUUUGUGUGAUUAUCAUCCAACAGAGGAUUGAGCAUCA
B14: chr12:104381838:104381839:+_ENSG00000139372_ENST00000392872|hu_hu|motif|central (ssRNA)
RNA: GGGAGUUCUACAGUCCGACGAUCACAAACAGCAAUGAUGCAGAUAAAGAAUCUUUAAAAUUAUUGGCUUACUGGAUUUACCGGGCAAGAAAAAUUCUAUAUUACUUAUUUUAGUACAUCUCAUGUACAUAAAGCACCAGUUUACAACAGAGGAUUGAGCAUCA
B15: chr15:81680702:81680703:-_ENSMUSG00000048546_ENSMUST00000050467|mus_hu|FALSE|FALSE (ssRNA)
RNA: GGGAGUUCUACAGUCCGACGAUCAAGGGAGUGGGGACUGGGGUCAGACCUAUUCAGGUGGCAGGGCCCGAGAAGGCCUGCUGAGGUUGGAUGGCUUUGAGUGCGAGGAUAGCUGGGUGACAGAGGCAGUGACACGGGCCAGCCCAACAGAGGAUUGAGCAUCA
B16: chr2:129036499:129036500:+_ENSMUSG00000027397_ENSMUST00000028880|mus_mus|FALSE|FALSE (ssRNA)
RNA: GGGAGUUCUACAGUCCGACGAUCGAAUACUGCCAUGAUAGCGGCACUGAUAACCCCAGAGAUGGGGACCGUGACAAACCAGGCCAUAAAAAUGUUUCGAAACAGUCGCCAGUCAACAGCCUUCUUUGAUCGGAGCCAGCCAACCAACAGAGGAUUGAGCAUCA
B17: 112328734_112335137_240_CDS_ENSG00000108055_ENST00000361804|human|control|control (ssRNA)
RNA: GGGAGUUCUACAGUCCGACGAUCUGGACGAAGAUGACUAAACUCAUCACUGAGAACAAACUGAAUUGCAUAAAAAAAGUUACUUUUUCCAGAUCCAUUUCUGCCCACAAUCACAUUAUGUUUUGAACUGAAGGGAUCUACAAUCAACAGAGGAUUGAGCAUCA
B18: 85357621_85393026_341_5pUTR_ENSMUSG00000061130_ENSMUST00000080217|mouse|control|control (ssRNA)
RNA: GGGAGUUCUACAGUCCGACGAUCAAUGAAUCUGGGGCGAAGGUAGAAAGGGAGGUCUCGCGGGCUCGCCCGCCGCACAGCCGCCCGCGGCCCCCGGCUUUCUCCCGAGACGCGACACCGCCUCCGCCGCCGCUUCGCCCUCGGCAACAGAGGAUUGAGCAUCA
B19: chr3:97503841:97503842:+_ENSG00000113966_ENST00000463745|hu_hu|FALSE|FALSE (ssRNA)
RNA: GGGAGUUCUACAGUCCGACGAUCAUCUGGAUGAUUCAGAAGAGUAUCGAGUUCUUCUUUGGCCACAACCAUUCUUAAUCUAUCACUACUAUCAAUGACAAAAAUAAUAGCUUGGCCUUCUUUAUAAUAGUGUUCCCAGAGAUUCAACAGAGGAUUGAGCAUCA
B20: chr14:72190480:72190481:+_ENSG00000197555_ENST00000381232|hu_hu|FALSE|FALSE (ssRNA)
RNA: GGGAGUUCUACAGUCCGACGAUCAAAUCCCACGGAGUUUAUGGUUCCUUCGGGUUUUUUCCAUCCAAUCAGGUACUUGCUAGUAGCGCCCUGGCGAGGGUAAAAACUCCUAGGACCAGAGGAGGAGGAGGAAGAGGAGGAGAACAACAGAGGAUUGAGCAUCA
B21: chr14:60920330:60920331:+_ENSMUSG00000021987_ENSMUST00000022563|mus_hu|FALSE|FALSE (ssRNA)
RNA: GGGAGUUCUACAGUCCGACGAUCUUUUUUAUUUACCCAAAAGUUUUUGAGUAAACUGAAAGUUAGAUACUCCAGGAACAGCAACUCAUUGAGCAAUAAGGCAGUUUAAAAAUAUACAUAUACAUGUACUAUUCAUUGUUUCUCCAACAGAGGAUUGAGCAUCA
B22: chr4:115894766:115894767:+_ENSMUSG00000028698_ENSMUST00000030464|mus_hu|mus_mus_mus_hu_True|78_98 (ssRNA)
RNA: GGGAGUUCUACAGUCCGACGAUCUUCCACACGGAAAGUACUUGGGGGUUUUCCAACGCCAGUACAAAGUCCGGCCAAACUACCCGAACAGGGUCCUCCCCCUCUCUCCUACAGAACACAACAAAAUGCCCCCGAACUUUCAAGCAACAGAGGAUUGAGCAUCA

Some of the results follow.

In this assay the target is T1, UNK ZnF1-3. The experiment in a line: nsRBNS (natural sequence RNA bind-n-seq); RBNS binding buffer (assumed for nsRBNS): 25 mM Tris pH 7.5, 150 mM KCl, 3 mM MgCl2, 0.01% Triton X-100, 500 ug/ml BSA, 20 U/ml SUPERase-In, 4 C; UNK is unkempt and MSI1 is Musashi-1; names of the RNAs are library labels; protein concentration not given here; high values mean tight binding.
B1 gave a binding signal of 0.271 enrichment R.
On to B2, for which the binding signal amounted to 2.18 enrichment R.
Under B3 stands 1.51 enrichment R.
For the molecule B4, the binding signal turned out to be 0.89 enrichment R.
Under B5 stands 0.761 enrichment R; under B6, 0.393 enrichment R; under B7, 2.21 enrichment R.
In the case of B8, the binding signal is 0.955 enrichment R.
Under B9 stands 0.624 enrichment R; under B10, 0.533 enrichment R.
Regarding B11, the binding signal amounted to 0.935 enrichment R.
Consider B12, for which the binding signal stood at 1.75 enrichment R.
Under B13 stands 0.855 enrichment R; under B14, 1.24 enrichment R; under B15, 1.33 enrichment R.
In the case of B16, the binding signal turned out to be 1.47 enrichment R.
The molecule B17 gave a binding signal of 1.14 enrichment R.
With B18 the figure was 0.505 enrichment R; with B19, 0.787 enrichment R; with B20, 1.41 enrichment R.
The molecule B21 showed a binding signal of 0.975 enrichment R.
B22 yielded a binding signal of 1.09 enrichment R.
